Experiment [1] relates to HSkMC (human skeletal muscle cells). Nature of the experiment: cytotoxicity call (relative viability < 0.9). The note with it: 10 µM.
The test system of experiment [2] is HepG2. Briefly: cytotoxicity call (relative viability < 0.9). The note with it: 10 µM.
Experiment [3] relates to S. aureus RN4220. Briefly: growth inhibition call (relative growth <= 0.2). Particulars: 50 µM.

This is one part of the list.

Regarding `CCOC(N)=O`, the cytotoxicity call in experiment [1] and in experiment [2] was “inactive” in each case. In experiment [3], the growth inhibition call was “inactive”.

As to `CC(=O)OCC1=C(C(=O)[O-])N2C(=O)C(NC(=O)CSc3ccncc3)C2SC1.[Na+]` (configuration not stated), the cytotoxicity call in experiment [1] and in experiment [2] was “inactive” each time. Besides, in experiment [3], the growth inhibition call was “active”.

For `Cc1ccc(S(=O)(=O)Nc2ccc3c(c2)C(=O)N([C@H](C)CO)C[C@H](C)[C@@H](CN(C)Cc2ccccc2)OCCCC[C@H](C)O3)cc1`, the cytotoxicity call in experiment [1] and in experiment [2] was “inactive” in each case. Moreover, in experiment [3], the growth inhibition call is “inactive”.

With `C[C@@H]1CN([C@H](C)CO)C(=O)Cc2cc(NC(=O)CCCCCC(=O)Nc3ccccc3N)ccc2O[C@H]1CN(C)C(=O)Nc1ccccc1`, the cytotoxicity call in experiment [1] and in experiment [2] was “inactive” in each case. In addition, the growth inhibition call in experiment [3] is “inactive”.

For `C[C@H](CO)N1C[C@H](C)[C@@H](CN(C)Cc2ccc(-c3ccccc3)cc2)Oc2ccc(NC(=O)Nc3ccc4c(c3)OCO4)cc2CC1=O`, the cytotoxicity call in experiment [1] and in experiment [2] was “inactive” each time. Further, the growth inhibition call in experiment [3] was “inactive”.

Turning to `COc1ccc(NC(=O)N(C)C[C@@H]2Oc3ccc(NC(=O)Nc4ccc(C(F)(F)F)cc4)cc3C(=O)N([C@H](C)CO)C[C@H]2C)cc1`, the cytotoxicity call in experiment [1] and in experiment [2] was “inactive” in each case. In experiment [3], the growth inhibition call was “inactive”.

Turning to `C[C@@H]1CN([C@@H](C)CO)C(=O)c2cccc(NS(C)(=O)=O)c2O[C@@H]1CN(C)S(=O)(=O)c1cccs1`, the cytotoxicity call in experiment [1] and in experiment [2] was “inactive” each time. Moreover, in experiment [3], the growth inhibition call was “inactive”.

In the case of `C[C@@H]1CN([C@H](C)CO)C(=O)c2cc(NC(=O)Cc3cn(C)c4ccccc34)ccc2O[C@H]1CN(C)Cc1ccc(Cl)c(Cl)c1`, the cytotoxicity call in experiment [1] was “active”. Further, the cytotoxicity call in experiment [2] is “inactive”. For the same molecule, the growth inhibition call in experiment [3] was “inactive”.

Take `C[C@H]1CCCCO[C@H](CN(C)C(=O)C2CCCCC2)[C@@H](C)CN([C@@H](C)CO)C(=O)c2cc(NC(=O)C3CCCCC3)ccc2O1`: the cytotoxicity call in experiment [1] and in experiment [2] was “inactive” each time. For the same molecule, in experiment [3], the growth inhibition call was “inactive”.

In the case of `COc1ccc(NC(=O)N(C)C[C@@H]2Oc3ccc(NC(=O)CCN4CCOCC4)cc3C(=O)N([C@@H](C)CO)C[C@H]2C)cc1`, the cytotoxicity call in experiment [1] and in experiment [2] was “inactive” each time. Also, in experiment [3], the growth inhibition call is “inactive”.

Consider `Cc1ccc(S(=O)(=O)N(C)C[C@H]2Oc3ccc(NC(=O)Nc4ccc(C(F)(F)F)cc4)cc3CC(=O)N([C@@H](C)CO)C[C@H]2C)cc1`, for which the cytotoxicity call in experiment [1] and in experiment [2] was “active” each time. Besides, in experiment [3], the growth inhibition call is “inactive”.

For `C[C@@H]1CN([C@H](C)CO)C(=O)c2cc(NS(=O)(=O)c3ccc(Cl)cc3)ccc2O[C@H]1CN(C)C(=O)Nc1cccc2ccccc12`, the cytotoxicity call in experiment [1] and in experiment [2] was “inactive” each time. The growth inhibition call in experiment [3] is “inactive”.

For the molecule `C[C@@H]1CN([C@H](C)CO)C(=O)c2cc(NS(=O)(=O)c3ccc(Cl)cc3)ccc2O[C@@H](C)CCCCO[C@H]1CN(C)Cc1ccccc1`, the cytotoxicity call in experiment [1] and in experiment [2] was “inactive” in each case. In addition, the growth inhibition call in experiment [3] was “inactive”.

As to `COc1ccc(-c2cccc(-c3nc(C(=O)NCC(F)(F)F)cc4c3[C@H](CCO)N([S@@](=O)C(C)(C)C)C4)c2)cc1`, the cytotoxicity call in experiment [1] and in experiment [2] was “inactive” throughout. Besides, the growth inhibition call in experiment [3] is “inactive”.

In the case of `Cc1noc(C)c1NC(=O)Nc1ccc2c(c1)C(=O)N([C@H](C)CO)C[C@@H](C)[C@H](CN(C)C(=O)Nc1ccc3c(c1)OCO3)OCCCC[C@@H](C)O2`, the cytotoxicity call in experiment [1] and in experiment [2] was “inactive” in each case. In addition, in experiment [3], the growth inhibition call was “inactive”.

Take `Cc1ccc(S(=O)(=O)Nc2ccc3c(c2)CC(=O)N([C@@H](C)CO)C[C@H](C)[C@H](CN(C)C(=O)Nc2ccc(C(F)(F)F)cc2)O3)cc1`: the cytotoxicity call in experiment [1] and in experiment [2] was “inactive” each time. Also, the growth inhibition call in experiment [3] is “inactive”.

As to `C[C@H]1CN([C@@H](C)CO)C(=O)Cc2cc(NC(=O)Nc3cccc4ccccc34)ccc2O[C@@H]1CN(C)Cc1ccccc1`, the cytotoxicity call in experiment [1] and in experiment [2] was “inactive” each time. In addition, the growth inhibition call in experiment [3] was “inactive”.

With `Cc1noc(C)c1NC(=O)Nc1ccc2c(c1)CC(=O)N([C@@H](C)CO)C[C@@H](C)[C@H](CN(C)Cc1ccc(-c3ccccc3)cc1)O2`, the cytotoxicity call in experiment [1] and in experiment [2] was “inactive” throughout. In experiment [3], the growth inhibition call was “inactive”.

As for `C[C@H](CO)N1C[C@H](C)[C@@H](CN(C)C(=O)Nc2ccccc2)Oc2ccc(NC(=O)Nc3cccc4ccccc34)cc2C1=O`, the cytotoxicity call in experiment [1] and in experiment [2] was “inactive” in each case. Further, the growth inhibition call in experiment [3] is “inactive”.

Consider `C[C@H](CO)N1C[C@H](C)[C@@H](CN(C)S(=O)(=O)c2cccs2)Oc2ccc(NC(=O)C3CC3)cc2CC1=O`, for which the cytotoxicity call in experiment [1] and in experiment [2] was “inactive” in each case. In addition, the growth inhibition call in experiment [3] is “inactive”.

For the molecule `CN(C)C(=O)C[C@@H]1C=C[C@@H](NC(=O)C2CC2)[C@H](CO)O1`, the cytotoxicity call in experiment [1] and in experiment [2] was “inactive” in each case. In addition, the growth inhibition call in experiment [3] is “inactive”.

Regarding `COc1ccc(NC(=O)Nc2ccc3c(c2)CC(=O)N([C@H](C)CO)C[C@H](C)[C@@H](CN(C)S(C)(=O)=O)O3)cc1`, the cytotoxicity call in experiment [1] and in experiment [2] was “inactive” each time. For the same molecule, in experiment [3], the growth inhibition call was “inactive”.

`CC(C)NC(=O)N(C)C[C@@H]1OCCCC[C@H](C)Oc2ccc(NC(=O)C3CCCCC3)cc2C(=O)N([C@@H](C)CO)C[C@H]1C`: the cytotoxicity call in experiment [1] and in experiment [2] was “inactive” each time. Also, in experiment [3], the growth inhibition call was “inactive”.

Take `C[C@H]1CN([C@@H](C)CO)S(=O)(=O)c2ccc(Br)cc2O[C@H]1CN(C)Cc1ccccc1F`: the cytotoxicity call in experiment [1] and in experiment [2] was “inactive” in each case. Besides, the growth inhibition call in experiment [3] was “inactive”.

These data come from the antibiotic and cytotoxicity screens of Wong et al. (2023).
